Hit rate of the full screen: of about 50,000 compounds, about 800 (1.6%) showed an effect of 50% or more. The list shows a part of the results.
These compounds were tested against Bcl-2-like protein 10 (Homo sapiens) (UniProt Q9HD36) (assay: TR3 peptide-Bcl-B binding displacers, biochemical primary FP assay, phenotype converters (AID 1240;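 further: 0% = Bcl-B with tracer peptide and DMSO and 100% = tracer peptide lacking Bcl-B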)). Details: GST-Bcl-B / FITC-TR3 peptide fluorescence polarization; stronger effect = higher value; compound at 3.75 mg/L.
Sequence of UniProt Q9HD36 (Q9HD36 whole entry, looked up): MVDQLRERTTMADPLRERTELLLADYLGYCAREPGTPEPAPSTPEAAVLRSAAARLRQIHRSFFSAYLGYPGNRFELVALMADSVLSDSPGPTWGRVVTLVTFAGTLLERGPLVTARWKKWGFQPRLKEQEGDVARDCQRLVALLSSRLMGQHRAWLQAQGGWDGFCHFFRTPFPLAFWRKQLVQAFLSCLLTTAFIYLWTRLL

SMILES | displacement [%]
O=C1C=CC(=O)C(c2cc(Cl)ccc2Cl)=C1 | 43.5
CN1C(=O)NC(=O)/C(=C\c2ccc([N+](=O)[O-])o2)C1=O | 17.3
CC1(C)CC2(CCO1)NCCN1C(=O)CSC12 (stereo unspecified) | -7.1
O=C1NC(=S)NC(=O)C1=Cc1ccc(-c2ccc(C(=O)O)cc2)o1 | -49.4
CCc1ccc(CNCCc2c[nH]c3ccccc23)cc1 | 5.3
CC12CC3CC(C)(C1)CC(N)(C3)C2 | 4.3
N#CCCOCC#CCN1CCCCC1 | -3.3
NCCc1c[nH]c2ccc(Cl)cc12 | 3.5
CN1C(=O)C(=Cc2cccc(OCCOc3ccc([N+](=O)[O-])cc3)c2)C(=O)N(C)C1=O | 6.4
CCOP(C)(=O)CN1CCCCC1 (stereo unspecified) | 14.1
O=c1c2cc(I)ccc2nc(/C=C/c2ccc([N+](=O)[O-])cc2)n1-c1ccccc1 | 1.1
Cc1cccc(N2C(=O)/C(=C/c3ccc(OCc4cccc(C(=O)O)c4)cc3)C(=O)NC2=S)c1 | 4.9
COc1ccc(CCNC2CCCCC2OC)cc1 (stereo unspecified) | 3.2
CCC1(c2ccccc2)C(=O)NC(=O)N(C(=O)c2cccc(F)c2)C1=O (stereo unspecified) | 5.4
CC(Cc1ccccc1)NC(=O)Cc1ccc(N)cc1 (stereo unspecified) | 6.4
O=c1oc2ccccc2c2c1C(c1cccc(F)c1)c1c(c3ccccc3oc1=O)O2 | 12.8
c1ccc(CN2CCN(C3CCCCC3)CC2)cc1 | -15.8
Cc1ccc(S(=O)(=O)n2cc(C=C3C(=O)NC(=O)NC3=O)c3ccccc32)cc1 | 11.6
Cn1cccc1CNCCc1ccc2c(c1)OCO2 | 3.3
OC12Oc3ccccc3C=C1N1CCC2CC1 (stereo unspecified) | 3.9
COCCNCCOc1c(C(C)C)cccc1C(C)C | 1.8
CN1C(=O)NC(=O)/C(=C/c2ccc(-c3cccc([N+](=O)[O-])c3)o2)C1=O | -20.5
O=C1NC(=S)NC(=O)C1=Cc1ccc(Sc2ccccc2)o1 | 25
CCOc1cc(C)cc2oc(=O)c3c(c12)CCCC3 | 3.8

SMILES | displacement [%]
COc1ccccc1-n1c(C=C2C(=O)Nc3ccccc32)nc2ccccc2c1=O | -6
O=C(c1ccc(-c2ccccc2)cc1)N1CCN(c2cccc(Cl)c2)CC1 | 4.5
CCC1(CCC(C)C)C(=O)NC(=O)N(C(=O)c2ccc(F)cc2)C1=O (stereo unspecified) | 2.2
COc1ccc(O)c(CN2CCN(Cc3cccc(C)c3)CC2)c1 | 5.8
COc1cc(/C=C/[N+](=O)[O-])cc(Br)c1OC(C)=O | 6.9
O=C1Nc2ccccc2/C1=C/c1nc2ccc(I)cc2c(=O)n1-c1ccccc1 | 4.5
Clc1cccc(CCNCc2cccnc2)c1 | -1.1
O=C1NC(=O)C(=Cc2ccccc2OCc2ccccc2Cl)C(=O)N1 | 13.7
O=C1NC(=S)NC(=O)C1=Cc1cccc(OS(=O)(=O)c2ccc3ccccc3c2)c1 | 3.4
O=[N+]([O-])c1cc(Cl)ccc1N1CCN(Cc2ccccc2)CC1 | -10.7
Cn1c(O)c(C=Nc2ccc3c(c2)CCC3)c(=O)n(C)c1=O | -4.5
O=C(CNC(=O)OCc1ccccc1)Nc1ccc(Br)cc1C(=O)c1ccccc1 | 13.1
CCCCn1c(N)c(C(=O)OCC)c2nc3ccccc3nc21 | 16.4
O=C(CN1C(=O)c2ccccc2C1=O)Nc1ccc(Cl)cc1C(=O)c1ccccc1 | 1.7
CN1C(=O)C(=Cc2cn(Cc3ccc(F)cc3)c3ccccc23)C(=O)N(C)C1=O | 138
CCN1C(=O)C(=Cc2ccc(N(CC)CC)cc2)C(=O)N(CC)C1=S | 0.3
COc1ccc(N2C(=O)CC(=O)NC2=S)cc1 | 0.3
CC1CN(c2ccc(C(F)(F)F)cc2[N+](=O)[O-])CCN1 (stereo unspecified) | -4.6
O=C(CCN1CCOCC1)Nc1ccc(Br)cc1C(=O)c1ccccc1 | 15.6
CC12CCC3C(CC=C4CC(O)CCC43CO)C1CCC2O (stereo unspecified) | -14.1
COc1cc(/C=C(\C)[N+](=O)[O-])cc(OC)c1OC | 6.4
CC(Cc1ccccc1)NC(=O)C(c1ccc(N)cc1)c1ccc(N)cc1 (stereo unspecified) | 42.7
O=C(c1ccc(N2N=N2)cc1)c1ccc(N2N=N2)cc1 | -2.3
COc1ccc(-n2c(-c3ccccc3F)nc3ccccc3c2=O)cc1 | 11.2

SMILES | displacement [%]
CCCCSc1nnc(NC(=O)Cn2c[n+]([N-][N+](=O)[O-])cn2)s1 | 1.9
COc1ccc(-c2nc3ccccc3c(=O)n2-c2ncccc2C)cc1 | -3
O=C(COc1ccc2ccccc2c1)N1CCN(Cc2ccccc2C(F)(F)F)CC1 | -1.6
O=[N+]([O-])c1ccc(N2CCOCC2)c(F)c1Br | 7.7
O=C1NC(=O)C(=Cc2ccc(O)c(O)c2)C(=O)N1 | 13.5
C#CC(C)(C)N1CC[C@@H](O)[C@@H]2CCC[C@@H]21 | -9.2
O=[N+]([O-])c1ccc(N2CCN(Cc3ccccc3)CC2)c(Cl)c1 | 3.7
CC(C)COP(C)(=S)/C(C#N)=C(\OC(=O)c1ccccc1)c1ccccc1 (stereo unspecified) | 11.4
CCOc1ccc(-n2c(-c3ccc(OC)cc3)nc3ccccc3c2=O)cc1 | 3
O=c1c2ccccc2nc(-c2cccs2)n1-c1ccc(Br)cc1 | -9.7
CCC(=O)c1ccc(N2CCN(C)CC2)c(F)c1 | -20
Cc1ccc(-n2c(/C=C3/C(=O)Nc4ccc(Br)cc43)nc3ccccc3c2=O)cc1 | 4.3
COc1ccc(OCC(=O)Nc2ccc(Br)cc2C(=O)c2ccccc2)cc1 | -8.4
O=C(COc1ccc(Cl)cc1)N1CCN(C2CCCCCC2)CC1 | -6
COc1ccc(O)c(CN2CCN(Cc3ccc(F)cc3)CC2)c1 | 3
COc1ccccc1/C=C1/C(=N\O)C2CCN1CC2 | -10.6
Cc1ccc(-c2nc3ccccc3c(=O)n2-c2ccc(Br)cn2)cc1 | -5.2
CC(C)c1cccc(C(C)C)c1OCCCn1ccnc1 | -3.3
COc1ccccc1-n1c(/C=C/c2ccc3c(c2)OCO3)nc2ccccc2c1=O | -7.9
COC(C(=O)Nc1ccc(Br)cc1C(=O)c1ccccc1Cl)c1ccccc1 (stereo unspecified) | -10.2
O=c1c2ccccc2nc(/C=C/c2ccccc2)n1-c1cccc([N+](=O)[O-])c1 | 35.2
CCC(C)N1CCN(Cc2cc(Br)ccc2OC)CC1 (stereo unspecified) | -24
O=C(Nc1nc2ccccc2s1)C(Cl)(Cl)Cl | 3.5
CCCCn1c(=O)c(C(=O)Nc2cc([N+](=O)[O-])ccc2O)c(O)c2ccccc21 | -2.9

SMILES | displacement [%]
CN1CC2([N+](=O)[O-])CC=C(Cl)C([N+](=O)[O-])(C1)C2 (stereo unspecified) | -5
COc1cc(C=C2C(=O)NC(=S)NC2=O)ccc1OCc1c(C)no[n+]1[O-] | 3.2
CC(=O)c1ccc(N2CCN(C)CC2)c(F)c1 | 1.2
CC(=O)c1ccc(NC(=O)C2C(C)(C)C2(C)C)cc1 | -3.8
CC(C)(C)c1ccc(N2C(=O)CC(=O)NC2=O)cc1 | 3.1
CC1=NN(c2ccccc2)C(=O)/C1=C/c1c(O)[nH]c(=S)[nH]c1=O | 0.6
CC1(C)C(C(=O)Nc2cccc3ccccc23)C1(C)C | 3.9
CC(C)(C)C(=O)CC(O)(c1ccccc1)C(Cl)(Cl)Cl (stereo unspecified) | -0.7
COc1ccc(CCNCc2cccc(Cl)c2)cc1 | -15.1
COc1cccc(CN2CCNCC2)c1OC | 15.6
CCc1ccc(N2C(=O)CC(=O)NC2=S)cc1 | -7.8
Cc1cccc(-n2c(C)nc3ccccc3c2=O)n1 | -13.6
Cc1ccc(OP(=O)(O)Oc2ccc(C)cc2)cc1 | 15.7
O=C(c1ccccc1)c1cc(Cl)ccc1NC(=O)c1nc[nH]c1C(=O)N1CCOCC1 | -5.8
C=CCc1cc(/C=C2/C(=O)NC(=S)N(CC=C)C2=O)cc(OC)c1O | 10.6
COc1ccc(O)c(CN2CCN(Cc3cccc(Cl)c3)CC2)c1 | 13.4
CCC(C)c1ccc(N2C(=O)CC(=O)NC2=S)cc1 (stereo unspecified) | -6.7
O=C(CN1CCOCC1)c1ccc(Br)cc1 | 10
CCc1nc2ccccc2c(=O)n1-c1ccc2ccccc2c1 | -5.1
COc1ccc(CN2CCN(C(=O)Cc3ccccc3)CC2)cc1Br | -10
Cc1ccccc1-n1c(/C=C/c2ccccc2O)nc2ccccc2c1=O | -6.6
COc1ccc(O)c(CN2CCN(Cc3ccc(C)cc3)CC2)c1 | -8.7
COc1ccc(C(=O)NC(Cc2cnc[nH]2)C(=O)O)cc1 (stereo unspecified) | 17.7
CC(=O)n1cc(C2C(=O)NC(=O)NC2=O)c2ccccc21 | -4.1

SMILES | displacement [%]
CCN1CCN(c2ccc([N+](=O)[O-])cc2)CC1 | 3.2
O=C1NC(=O)N(c2ccccc2)C(=O)/C1=C/C=C/c1ccccc1[N+](=O)[O-] | 12.8
CN(C)C(=O)Oc1ccc([N+](=O)[O-])cc1 | 1.8
C=C(C)COc1cc(C)cc2oc(=O)c3c(c12)CCC3 | 11.4
COc1ccc(OC)c(-n2c(O)c(C=C3C=Nc4ccccc43)c(=O)[nH]c2=O)c1 | 118
CC(C)c1ccc(N2C(=O)CC(=O)NC2=S)cc1 | -8.7
CCCCN(CC#CCOCCC#N)CCCC | -4.6
O=C(Nc1ccc(Cl)cc1C(=O)c1ccccc1)c1ccncc1 | 10.5
Cc1ccc(N2C(=O)NC(=O)/C(=C\c3cn(CC(=O)O)c4ccccc34)C2=O)cc1 | 183
O=C(CN1CCOCC1)NCC(=O)Nc1ccc(Br)cc1C(=O)c1ccccc1 | 12
C=CCn1cc(C=C2C(=O)NC(=O)NC2=O)c2ccccc21 | 16.3
CN1CCN(c2ccc([N+](=O)[O-])c(Br)c2F)CC1 | 0.4
O=C(O)c1cn(Cc2ccccc2)c2ccccc12 | -2.6
Nc1ccc(Br)cc1C(=O)c1ccc(Cl)cc1Cl | 10
Cc1cccnc1-n1c(CN2C(=O)c3ccccc3C2=O)nc2ccccc2c1=O | 10.4
CC(Cc1ccccc1)NC(=O)CN1CCCC1=O (stereo unspecified) | 8.5
CN(C)C(=O)C(c1ccccc1)c1ccccc1 | 20.4
C[C@]12CCCCC1CCC1C2CC[C@@]2(C)C1CC[C@@]2(O)CC#N (stereo partly specified) | 2.9
CC1(C)C(=O)N(c2ccccc2)C(=O)N(c2ccccc2)C1=O | 17.1
Cc1cc(OCc2ccc(F)cc2)c2c3c(c(=O)oc2c1)CCCC3 | -3.2
